# Results as given in the supplement of paper PMC12217912.
# Some of the results follow. The full chains were built here from the parent and the listed change. Values near 0.05 are background.
# B1: TEV protease; numbered along this chain (parent)
# chain: MGESLFKGPRDYNPISSSICHLTNESDGHTTSLYGIGFGPFIITNKHLFRRNNGTLVVQSLHGVFKVKDTTTLQQHLVDGRDMIIIRMPKDFPPFPQKLKFREPQREERICLVTTNFQTKSMSSMVSDTSCTFPSGDGIFWKHWIQTKDGQCGSPLVSTRDGFIVGIHSASNFTNTNNYFTSVPKNFMELLTNQEAQQWVSGWRLNADSVLWGGHKVFMVKPEEPFQPVKEATQL
# Variants of: B1
# Test: raw area under fraction-flipped curve 0-4 h after induction (AUC4h, not background-subtracted), DNA-recorder readout of cleavage of the substrate (dimensionless); higher = more cleavage of the substrate by the protease variant
# Details: temperature: 34 °C; time window: 0-4 h after rhamnose induction
# Procedure: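 In vivo DNA recorder in E. coli TOP10(DE3) ΔrhaA at 34 °C. Each TEVp single-site mutant (parent TEVp 0) is paired with a single-site variant of the 7-mer TEVs (canonical ENLYFQ|S). The substrate sits between flexible linkers in a Bxb1-sfGFP-TEVs-SsrA fusion, so cleavage stabilises Bxb1 and speeds flipping of a recombination array, read by NGS. The value is the raw area under the fraction-flipped curve over 0-4 h after rhamnose induction (AUC4h), with ≥20 reads per time point. It is not background-subtracted; inactive controls average about 0.047.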
# 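Also: Bxb1 expression induced with 0.2% (w/v) L-rhamnose at OD600 near 0.5, cultures sampled hourly, flipped fraction per protease–substrate barcode pair counted by paired-end Illumina sequencing.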
Variant,area with substrate EALYFQS,area with substrate ECLYFQS,area with substrate EDLYFQS,area with substrate EELYFQS,area with substrate EFLYFQS,area with substrate EGLYFQS,area with substrate ELLYFQS,area with substrate EMLYFQS,area with substrate EPLYFQS,area with substrate ERLYFQS,area with substrate ESLYFQS,area with substrate EVLYFQS,area with substrate EYLYFQS,area with substrate EHLYFQS,area with substrate EILYFQS,area with substrate EKLYFQS,area with substrate EQLYFQS,area with substrate ETLYFQS,area with substrate EWLYFQS
MGESLFKGPRDYNPISSSICHLTNESDGHTTSLYGIGFGPFIITNKHLFRRNNGTLVVQSLHGVFKVKDTTTLQQHLVDGRDMIIIRMPKDFPPFPQKLKFREPQREERICLVTTNFQTKSMSSMVSDTLCTFPSGDGIFWKHWIQTKDGQCGSPLVSTRDGFIVGIHSASNFTNTNNYFTSVPKNFMELLTNQEAQQWVSGWRLNADSVLWGGHKVFMVKPEEPFQPVKEATQL [S130L],0.0816,0.0786,0.0846,0.102,0.0725,0.0444,0.075,0.0793,0.0848,0.0667,0.0805,0.0786,0.0916,–,–,–,–,–,–
MGESLFKGPRDYNPISSSICHLTNESDGHTTSLYGIGFGPFIITNKHLFRRNNGTLVVQSLHGVFKVKDTTTLQQHLVDGRDMIIIRMPKDFPPFPQKLKFREPQREERICLVTTNFQTKSMSSMVSDTSCTFPSGDGIFWKHWIQTKDGQCGSPLVSTRDGFIVGIHSASNFTNTNNYFTSVPKNFMELLTNQEAQQWVSGWRLNADSVLWGGHKVFMVKNEEPFQPVKEATQL [P222N],0.122,0.0969,0.138,0.13,–,0.0654,0.106,0.126,0.118,0.0981,0.101,0.092,–,0.0841,0.0861,0.112,0.0889,–,–
MGESLFKGPRDYNPISSSICHLTNESDGHTTSLYGIGFGPFIITNKHLFRRNNGTLVVQSLHGVFKVKDTTTLQQHLVDGRDMIIIRMPKDFPPFPQKLKFREPQREERICLVTTNFQTMSMSSMVSDTSCTFPSGDGIFWKHWIQTKDGQCGSPLVSTRDGFIVGIHSASNFTNTNNYFTSVPKNFMELLTNQEAQQWVSGWRLNADSVLWGGHKVFMVKPEEPFQPVKEATQL [K120M],0.0928,–,0.106,0.134,–,0.0811,–,0.113,–,0.0822,0.108,0.0657,0.0888,0.104,0.0911,0.109,0.108,0.0958,0.0812
MGESLFKGPRDYNPISSSICHLTNESDGHTTSLYGIGFGPFIITNKHLFRRNNGTLVVQSLHGVFKVKDTTTLQQHLVDGRDMIIIRMPKDFPPFPQKLKFREPQREERICLVTTNFQTKSMSSMVSDTSCTFPSGDGIFWKHWIQTKDGQCGSPLVSTRDGFIVGIHSASNFTNTNNYFTSVPKNFMELLTNQEAQQWVSGWRLKADSVLWGGHKVFMVKPEEPFQPVKEATQL [N206K],0.087,0.0839,0.0984,0.136,–,0.0947,–,0.0945,–,–,–,–,–,–,0.0849,0.0559,0.0763,0.0992,0.104
MGESLFKGPRDYNPISSSICHLTNESDGHTTSLYGIGFGPFIITNKHLFRRNNGTLVVQSLHGVFKVKDTTTLQQHLVDGRDMIIIRMPKDFPPFPQKLKFREPQREERICLVTTNFQTKSMSSMVSDTSCTFPSGDGIFWKHWIQTKDGQCGSPLVSTRDGFIVGIHSASNFTNTNNYFTSVPKNFMELLTNQEAQQWVSEWRLNADSVLWGGHKVFMVKPEEPFQPVKEATQL [G202E],0.0958,0.0597,0.0762,–,0.0704,–,–,0.062,–,0.0809,0.0714,0.0677,–,0.0793,0.0517,0.0718,0.0765,–,–
MGESLFKGPRDYNPISSSICHLTNESDGHTTSLYGIGFGPFIITNKHLFRRNNGTLVVQSLHGVFKVKDTTTLQQHLVDGRDMIIIRMPKDFPPFPQKLKFREPQREERICLVTTNFQTKSMSSMSSDTSCTFPSGDGIFWKHWIQTKDGQCGSPLVSTRDGFIVGIHSASNFTNTNNYFTSVPKNFMELLTNQEAQQWVSGWRLNADSVLWGGHKVFMVKPEEPFQPVKEATQL [V126S],0.146,0.111,0.0794,0.148,0.112,0.112,0.098,0.0979,0.138,0.105,0.11,0.117,0.113,0.122,0.105,–,–,0.134,0.0993
MGESLFKGPRDYNPISSSICHLTNESDGHTTSLYGIGFGPFIITNKHLFRRNNGTLVVQSLHGVFKVKDTTTLQQHLVDGRDMIIIRMPKDFPPFPQKLKFREPQREERICLVTTNFQTKSMSSMVSDTSCTFPSGDGIFWKHWIQTKDGQCGSPLVSTRDGFIVGIHSASNFTNTNNYFTSVPKNFMELLTNQEYQQWVSGWRLNADSVLWGGHKVFMVKPEEPFQPVKEATQL [A196Y],0.144,–,0.0657,0.112,–,–,0.092,0.118,–,0.0916,0.101,0.0976,–,0.126,0.0834,0.161,0.123,–,–
MGESLFKGPRDYNPISSSICHLTNESDGHTTSLYGIGFGPFIITNKHLFRRNNGTLVVQSLHGVFKVKDTTTLQQHLVDGRDMIIIRMPKDFPPFPQKLKFREPHREERICLVTTNFQTKSMSSMVSDTSCTFPSGDGIFWKHWIQTKDGQCGSPLVSTRDGFIVGIHSASNFTNTNNYFTSVPKNFMELLTNQEAQQWVSGWRLNADSVLWGGHKVFMVKPEEPFQPVKEATQL [Q105H],0.108,0.14,–,0.111,–,0.062,0.0849,0.0911,0.104,0.105,0.0959,0.0957,–,0.0864,0.118,0.118,–,0.132,–
MGESLFKGPRDYNPISSSICHLTNESDGHTTSLYGIGFGPFIITNKHLFRRNNGTLVVQSLHGVFKVKDTTTLQQHLVDGRDMIIIRMPKDFPPFPQKLKFREPQREERICLVTDNFQTKSMSSMVSDTSCTFPSGDGIFWKHWIQTKDGQCGSPLVSTRDGFIVGIHSASNFTNTNNYFTSVPKNFMELLTNQEAQQWVSGWRLNADSVLWGGHKVFMVKPEEPFQPVKEATQL [T115D],0.0911,0.12,–,0.104,–,0.114,0.0941,0.118,0.0989,0.106,0.108,0.103,–,–,0.107,0.127,0.128,–,0.0649
